# Where “and” joins values, the source holds several entries; their conditions need not be identical. Equal values may be shown once. This list was built around the results that the source calls inconclusive (neither active nor inactive); the mix of calls is not that of the screen. For part of these data: Where the call is inconclusive, the potency comes from a doubtful curve fit. Calls of active or inactive are those of the source. Unless noted, the call rests on the fitted dose curve; in most records, active means well fitted curve in the direction sought with a large enough effect in the repeat runs; inconclusive means weak or mixed curves; inactive means no such curve, though single readings can be large; an effect the other way counts as inactive or inconclusive.
# Legend:
# [1] = qHTS assay to identify small molecule agonists or antagonists of the thyroid stimulating hormone receptor (TSHR) signaling pathway - wild type cell line counter screen (AID 1259384; calls by dose curve; on cAMP activity change: on the % scale 0 is the no-effect control and ±100 the full control effect); conditions: HEK293 wild type, cAMP HTRF counter-screen; cAMP activity change: at 92.4 µM (top of the series), stronger effect = higher value unless noted
# In short: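 Wild-type HEK293 cells were plated 18 h at 37 C/5% CO2, pin-dosed with compound plus Ro20-1724 medium, held 30 min at room temperature, then given cAMP-d2 and anti-cAMP-cryptate; fluorescence was read after 1 h. Fifteen concentrations, triplicate.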
# [2] = molecular target: Thyrotropin receptor (Homo sapiens) (UniProt P16473); assay: qHTS assay to identify small molecule antagonists of the thyroid stimulating hormone receptor (TSHR) signaling pathway (AID 1259385; calls by dose curve; further: nearly all actives have a fitted effect of over 20% in size; on activity change, negative = inhibition: on the % scale 0 is the no-effect control and ±100 the full control effect); conditions: TSHR-HEK293 cAMP HTRF, TSH-stimulated antagonist mode; activity change, negative = inhibition: at 92.4 µM (top of the series) unless noted
# Sequence of UniProt P16473 (P16473 whole entry, looked up): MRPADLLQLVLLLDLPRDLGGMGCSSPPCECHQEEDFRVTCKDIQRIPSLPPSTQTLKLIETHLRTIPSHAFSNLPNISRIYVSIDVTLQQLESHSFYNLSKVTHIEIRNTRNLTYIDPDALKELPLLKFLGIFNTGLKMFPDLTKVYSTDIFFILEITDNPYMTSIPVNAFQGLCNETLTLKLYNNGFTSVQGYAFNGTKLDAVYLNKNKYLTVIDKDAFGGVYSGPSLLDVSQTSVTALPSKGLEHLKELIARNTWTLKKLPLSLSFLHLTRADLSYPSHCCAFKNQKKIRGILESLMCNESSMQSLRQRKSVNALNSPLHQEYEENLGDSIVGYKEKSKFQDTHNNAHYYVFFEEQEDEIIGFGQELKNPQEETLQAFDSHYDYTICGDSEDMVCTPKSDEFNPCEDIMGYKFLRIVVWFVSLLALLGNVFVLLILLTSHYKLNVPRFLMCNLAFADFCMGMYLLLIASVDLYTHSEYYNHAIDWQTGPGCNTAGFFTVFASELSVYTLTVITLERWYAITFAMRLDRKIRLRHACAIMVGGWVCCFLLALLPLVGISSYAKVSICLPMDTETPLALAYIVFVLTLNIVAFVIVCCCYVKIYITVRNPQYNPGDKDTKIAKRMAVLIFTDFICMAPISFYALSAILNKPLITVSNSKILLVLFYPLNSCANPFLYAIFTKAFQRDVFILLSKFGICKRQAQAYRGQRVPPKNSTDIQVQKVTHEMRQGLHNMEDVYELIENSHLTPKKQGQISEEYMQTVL
# In short: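 TSHR-HEK293 cells were plated and held 18 h at 37C/5% CO2, then given compound plus Ro20-1724 and stimulated with TSH at 1.5 ng/mL final. After 30 min at room temperature, cAMP was detected with cAMP-d2/anti-cAMP-cryptate (1 h) by fluorescence.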
# [3] = molecular target: Progesterone receptor (Homo sapiens) (UniProt P06401); assay: qHTS assay to identify small molecule agonists of the progesterone receptor (PR) signaling pathway (AID 1346784; calls by dose curve; further: nearly all actives have a fitted effect of over 30% in size; on activation: on the % scale 0 is the no-effect control and ±100 the full control effect); conditions: PR-UAS-bla HEK293T, beta-lactamase FRET ratio, 16 h; activation: at 92.4 µM (top of the series) unless noted
# Sequence of UniProt P06401 (P06401 whole entry, looked up): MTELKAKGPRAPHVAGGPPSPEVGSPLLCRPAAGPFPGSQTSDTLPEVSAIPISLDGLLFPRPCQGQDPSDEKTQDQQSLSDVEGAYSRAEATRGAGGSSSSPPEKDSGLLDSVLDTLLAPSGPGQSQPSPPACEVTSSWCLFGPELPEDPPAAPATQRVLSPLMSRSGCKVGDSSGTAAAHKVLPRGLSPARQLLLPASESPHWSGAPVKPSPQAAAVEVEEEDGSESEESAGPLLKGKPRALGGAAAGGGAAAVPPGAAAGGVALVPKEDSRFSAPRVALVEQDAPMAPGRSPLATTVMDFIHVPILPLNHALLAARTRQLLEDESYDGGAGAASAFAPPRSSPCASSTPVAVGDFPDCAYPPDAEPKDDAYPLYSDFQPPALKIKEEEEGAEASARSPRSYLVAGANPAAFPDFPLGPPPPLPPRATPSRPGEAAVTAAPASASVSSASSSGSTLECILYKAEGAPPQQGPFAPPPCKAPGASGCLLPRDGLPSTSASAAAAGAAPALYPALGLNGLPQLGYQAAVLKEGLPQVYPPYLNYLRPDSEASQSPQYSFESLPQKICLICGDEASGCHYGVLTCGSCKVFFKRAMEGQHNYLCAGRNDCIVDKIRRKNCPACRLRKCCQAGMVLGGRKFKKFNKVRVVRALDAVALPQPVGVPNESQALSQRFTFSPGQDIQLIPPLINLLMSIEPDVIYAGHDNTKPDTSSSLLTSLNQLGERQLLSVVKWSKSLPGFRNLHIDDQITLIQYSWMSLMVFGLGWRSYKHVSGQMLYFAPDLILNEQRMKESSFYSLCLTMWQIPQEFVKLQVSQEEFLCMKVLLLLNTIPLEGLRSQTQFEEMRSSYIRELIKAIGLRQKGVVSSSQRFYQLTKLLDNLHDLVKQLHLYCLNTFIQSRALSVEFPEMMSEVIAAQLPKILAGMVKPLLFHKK
# In short: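 Fluorescence from LiveBLAzer B/G FRET substrate cleavage (2 hr, RT) reported PR activation in PR-UAS-bla HEK 293T cells treated 16 hr at 37C/5% CO2 with compounds; medium contained 2% charcoal-stripped FBS.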
# [4] = molecular target: Progesterone receptor (Homo sapiens) (UniProt P06401); assay: qHTS assay to identify small molecule antagonists of the progesterone receptor (PR) signaling pathway (AID 1346795; active means well fitted inhibition curve with a large enough effect in the signal ratio in the repeat runs, not every such curve was filed as active; inconclusive means weak or mixed curves; the % refers to the signal ratio; on activity change, negative = inhibition: on the % scale 0 is the no-effect control and ±100 the full control effect); conditions: PR-UAS-bla HEK293T, beta-lactamase FRET ratio, 16 h
# In short: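 Fluorescence intensity measured 2 hr after adding beta-lactamase FRET substrate to PR-UAS-bla HEK293T cells that had been co-treated 16 hr with compound and 1 nM R5020 (final concentration) in 2% charcoal-stripped FBS.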
# [5] = qHTS assay to identify small molecule antagonists of the progesterone receptor (PR) signaling pathway - cell viability counter screen (AID 1346798); further: nearly all actives have a fitted effect of over 50% in size
# In short: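 CellTiter-Glo luminescence; PR-UAS-bla HEK293T, 3,000 cells/well; compound + R5020, 16 hr, 37C/5% CO2; 30 min RT before read.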
# [6] = qHTS assay to identify small molecule agonists of the progesterone receptor (PR) signaling pathway - cell viability counter screen (AID 1346799; calls by dose curve; further: nearly all actives have a fitted effect of over 45% in size)
# In short: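 In parallel with the beta-lactamase readout, cytotoxicity toward PR-UAS-bla HEK293T cells was measured by CellTiter-Glo luminescence following 16 hr compound incubation in 2% charcoal-stripped FBS medium.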
# [7] = qHTS assay to identify small molecule antagonists of the TGF-beta/Smad signaling pathway - cell viability counter screen (AID 1346824); further: nearly all actives have a fitted effect of over 50% in size
# In short: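 SBE-bla HEK 293T cells were plated overnight at 37 C, then given compounds in DMSO plus TGF-beta1 (added as 0.25 ng/mL solution) for 5 hr. After the bla read, CellTiter-Glo was added to the same wells and luminescence read after 30 min at room temperature.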
# [8] = qHTS assay to identify small molecule agonists of the TGF-beta/Smad signaling pathway - cell viability counter screen (AID 1346829); further: nearly all actives have a fitted effect of over 45% in size
# In short: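 Cytotoxicity counter screen: CellTiter-Glo luminescence (30 min, room temperature) measured in the SBE-bla HEK 293T reporter wells after 5 hr compound treatment at 37 C and the 2 hr substrate step.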
# [9] = qHTS assay to identify small molecule agonists of the TGF-beta/Smad signaling pathway (AID 1346859; active means well fitted activation curve with a large enough effect in the signal ratio in the repeat runs, not every such curve was filed as active; inconclusive means weak or mixed curves; the % refers to the signal ratio); conditions: SBE-bla HEK293T, TGF-beta/Smad beta-lactamase reporter, 5 h; activation: at 76.8 µM (top of the series)
# In short: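 After overnight seeding, SBE-bla HEK 293T cells are dosed with compounds in DMSO and kept 5 hr at 37 C, 5% CO2. LiveBLAzer-type FRET substrate is then applied for 2 hr at room temperature.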
# [10] = molecular target: Thyrotropin-releasing hormone receptor (Homo sapiens) (UniProt P34981); assay: qHTS assay to identify small molecule antagonists of the thyrotropin-releasing hormone receptor (TRHR) signaling pathway (AID 1346877; active means well fitted inhibition curve with a large enough effect in the repeat runs, not every such curve was filed as active; inconclusive means weak or mixed curves)
# Sequence of UniProt P34981 (P34981 whole entry, looked up): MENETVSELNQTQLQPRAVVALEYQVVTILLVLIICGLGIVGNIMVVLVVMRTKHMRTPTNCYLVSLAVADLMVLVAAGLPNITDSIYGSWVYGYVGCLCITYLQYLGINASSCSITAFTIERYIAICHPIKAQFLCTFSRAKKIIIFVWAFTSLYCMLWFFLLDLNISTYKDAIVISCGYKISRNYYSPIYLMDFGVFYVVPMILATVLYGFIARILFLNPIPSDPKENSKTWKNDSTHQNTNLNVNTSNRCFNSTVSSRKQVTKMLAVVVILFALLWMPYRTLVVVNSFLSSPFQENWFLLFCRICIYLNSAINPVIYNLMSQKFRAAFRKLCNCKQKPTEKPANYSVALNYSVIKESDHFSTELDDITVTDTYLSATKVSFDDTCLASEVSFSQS
# In short: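 HEK293/TRHR cells, 18 h, 37 °C; Ca2+ dye 2 h; cpd 5 min RT; TRH 1 nM final; fluorescence read 3 min, 1 s intervals; 15 concs, triplicate.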
# [11] = qHTS assay to identify small molecule antagonists of the TGF-beta/Smad signaling pathway (AID 1346924; active means well fitted inhibition curve with a large enough effect in the signal ratio in the repeat runs, not every such curve was filed as active; inconclusive means weak or mixed curves; the % refers to the signal ratio); conditions: SBE-bla HEK293T, TGF-beta/Smad reporter, beta-lactamase ratio; activity, negative = inhibition: at 76.8 µM (top of the series) unless noted
# In short: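 Read-out was FRET-substrate fluorescence (405 nm excitation; 460 and 530 nm emission) after 2 h at room temperature. Before that, cells carrying a Smad-binding-element beta-lactamase reporter in HEK 293T had been stimulated 5 h at 37 C with TGF-beta1 (0.25 ng/mL addition solution) in the presence of test compound.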
# [12] = Human pregnane X receptor (PXR) small molecule agonists, qHTS cell viability counter screen (AID 1346977); further: nearly all actives have a fitted effect of over 50% in size
# In short: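 Viability counter screen: CellTiter-Fluor signal in PXR-Luc HepG2 cells, 24hr compound exposure, 37C, 5% CO2.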
# [13] = Caspase-3/7 induction in HepG2 cells by small molecules, qHTS assay (AID 1346978); further: nearly all actives have a fitted effect of over 15% in size
# In short: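 Wild-type HepG2 cells (2,000/well) were settled 5 h at 37 C, 5% CO2, then exposed to compounds in DMSO for 17 h. Caspase-3/7 activity was read by luminescence 30 min after adding Caspase-Glo 3/7 reagent at room temperature.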
# [14] = Caspase-3/7 induction in CHO-K1 cells by small molecules, qHTS assay (AID 1346980); further: nearly all actives have a fitted effect of over 15% in size
# In short: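 Wild-type cells were seeded at 1,500 per well and settled 5 hr at 37 C, 5% CO2, then exposed to DMSO-dissolved compounds for 17 hr. Caspase-Glo 3/7 reagent was added, and luminescence was read after 30min at room temperature.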
# [15] = Caspase-3/7 induction in CHO-K1 cells by small molecules, qHTS cell viability counter screen (AID 1346979); further: nearly all actives have a fitted effect of over 35% in size
# In short: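 Viability readout by fluorescence (CellTiter-Fluor) on wild-type CHO-K1 cells exposed for 16hr at 37C and 5% CO2 to compounds delivered in DMSO; reagent incubated 1hr before reading.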
# [16] = qHTS assay to identify small molecule agonists of the estrogen receptor alpha (ER-alpha) signaling pathway in the presence of an antagonist - cell viability counter screen (AID 1259386);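 further: cells exposed to compounds for 22 h at 37 °C before the viability read; nearly all actives have a fitted effect of over 30% in size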
# In short: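 Read-out: CellTiter-Fluor fluorescence after 1hr reagent incubation, measured in the same wells as the luciferase readout. VM7Luc4E2 cells were exposed to 15 compound concentrations with 10.0nM ICI-182,780 for 22hr at 37C.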
# [17] = activity change, negative = inhibition: at 92.4 µM (top of the series) unless noted
# Potency means the concentration at half of the fitted maximal effect; tags describe the fitted curve by direction and shape or compound fluorescence and quenching.
compound,measurement,setting,value
C=CC(=O)[O][Sn]([CH2]CCC)([CH2]CCC)[CH2]CCC,Potency,[1],"inconclusive: 19.3 µM [rising, partial curve]"
same,Potency,[2],active: 13.7 µM
same,Potency,[3],"inconclusive: 3.44 µM [cytotoxic, full curve]"
same,Potency,[4]; [17],"inconclusive: 12.2 µM [falling, partial curve, poor fit]"
same,Potency,[5],active: 4.33 µM
same,Potency,[6],"inconclusive: 3.06 µM [cytotoxic, full curve, poor fit]"
same,Potency,[7],active: 2.45 µM
same,Potency,[8],active: 1.95 µM
same,Potency,[9],"inconclusive: 245 nM [rising, full curve]"
same,Potency,[10],active: 13.5 µM
same,Potency,[11],"inconclusive: 2.19 µM [rising, full curve]"
same,Potency,[12],active: 0.686 µM
same,Potency,[13],active: 2.43 µM
same,Potency,[14],active: 1.22 µM
Cn1c(CCCC(=O)O)nc2cc(N(CCCl)CCCl)ccc21,Potency,[1],inactive
same,Potency,[2],"inconclusive: 29.8 µM [falling, partial curve, poor fit]"
same,"activity change, negative = inhibition",[4]; [17],inconclusive: 3.83% [at 42.5 µM]
same,Potency,[15],"inconclusive: 26.6 µM [cytotoxic, partial curve]"
OCCN(CCO)CCO,Potency,[2],inactive
CCCCOCN(C(=O)CCl)c1c(CC)cccc1CC,Potency,[2],active: 61.1 µM
same,Potency,[4]; [17],inconclusive: 19.3 µM
same,Potency,[6],"inconclusive: 54.5 µM [rising, partial curve]"
same,Potency,[9],"inconclusive: 49000 nM [rising, partial curve]"
same,Potency,[11],"inconclusive: 49 µM [rising, single point]"
same,Potency,[12],"inconclusive: 68.6 µM [cytotoxic, single point]"
O=[N+]([O-])c1ccc(Cl)c([N+](=O)[O-])c1,Potency,[16],active: 31.1 µM and active: 27.3 µM
same,Potency,[3],"inconclusive: 24.7 µM [cytotoxic, partial curve]"
same,activation,[3],inconclusive: -17.4%
same,Potency,[5],active: 31.1 µM and active: 27.3 µM
same,Potency,[6],active: 27.7 µM and active: 27.3 µM
same,Potency,[7],active: 55.8 µM and active: 34.7 µM
same,Potency,[8],inconclusive: 55.8 µM [cytotoxic] and active: 24.5 µM
same,Potency,[9],"inconclusive: 39.5 µM [rising, partial curve] and inconclusive: 21.9 µM [rising, partial curve]"
same,Potency,[11],"inconclusive: 7.88 µM [rising, full curve]"
same,Potency,[13],"inconclusive: 24.7 µM [activator, single point]"
same,Potency,[15],active: 6.96 µM and active: 12.2 µM
Oc1ccc2ccc3cccc4ccc1c2c34,Potency,[2],inactive
same,Potency,[3],inactive
same,Potency,[4]; [17],inconclusive: 27.3 µM
same,Potency,[8],"inconclusive: 0.219 µM [rising, full curve, poor fit]"
same,activation,[9],inconclusive: 15.3%
CC(Cc1ccc(C(C)(C)C)cc1)CN1C[C@@H](C)O[C@@H](C)C1 (stereo partly specified),Potency,[2],"inconclusive: 54.5 µM [falling, partial curve]"
same,Potency,[3],"inconclusive: 96.9 µM [falling, partial curve, poor fit]"
same,Potency,[4]; [17],inactive
same,Potency,[5],"inconclusive: 0.864 µM [cytotoxic, single point]"
same,Potency,[6],inconclusive: 68.6 µM
same,Potency,[15],"inconclusive: 77 µM [cytotoxic, single point]"
same,Potency,[14],inactive
COP(=O)(OC)O/C(=C\Cl)c1cc(Cl)c(Cl)cc1Cl,Potency,[2],inconclusive: 68.6 µM
same,Potency,[4]; [17],active: 6.86 µM
same,Potency,[6],"inconclusive: 0.545 µM [rising, full curve]"
same,Potency,[12],inactive
same,Potency,[15],"inconclusive: 77 µM [cytotoxic, single point]"
O=Cc1ccccc1,Potency,[2],inactive
same,Potency,[6],"inconclusive: 2.5 µM [cytotoxic, single point]"
O=C(O)c1cc(Oc2ccc(C(F)(F)F)cc2Cl)ccc1[N+](=O)[O-],Potency,[2],inactive
same,Potency,[4]; [17],"inconclusive: 30.8 µM [rising, partial curve] and inconclusive: 61.1 µM [rising, partial curve]"
same,"activity change, negative = inhibition",[4]; [17],inconclusive: -21.4%
same,"activity change, negative = inhibition",[4]; at 42.5 µM (top of the series),inactive: -6.65%
same,Potency,[6],"inconclusive: 48.5 µM [cytotoxic, partial curve]"
same,Potency,[7],inactive
same,"activity, negative = inhibition",[11],inconclusive: 8.49%
CC(=O)/C=C/c1ccccc1,Potency,[2],"inconclusive: 67.3 µM [falling, partial curve, poor fit]"
same,"activity change, negative = inhibition",[4]; [17],inconclusive: 2.53%
same,Potency,[6],"inconclusive: 13.7 µM [cytotoxic, single point]"
same,Potency,[13],inactive

# Reference: PubChem BioAssay (Tox21)
